Measured values as given in PubChem BioAssay AID485364 (National Center for Advancing Translational Sciences (NCATS), 2010).
In all, about 360,000 compounds went through this assay and about 11,000 (3.1%) were called active. Inconclusive results, whose numbers are uncertain, are shown with a selection of clear calls. The call rests on the fitted dose curve; in most records, active means well fitted inhibition curve with a large enough effect; inconclusive means small, poorly fitted or top-dose-only effect; inactive means no such curve, though single readings can be large or run the other way. No potency is given beside an inconclusive call; the fits are too rough.

target: Schistosoma mansoni thioredoxin glutathione reductase (TGR) (UniProt Q962Y6); assay: qHTS Assay for the Inhibitors of Schistosoma Mansoni Peroxiredoxins; settings: purified TGR, DTNB reduction, TNB absorbance 405 nm; activity change, negative = inhibition: at 114 µM (top of the series) unless noted; further: nearly all actives have a fitted effect of over 60% in size
Outline: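 TGR 20 nM + NADPH 100 uM (dispensed conc.), cpd preinc 15 min RT; start with NADPH (500 uM addition) then DTNB (15 mM addition). Kinetic TNB absorbance, 405 nm filter. Four-parameter Hill fit across titration.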
On the % scale 0 is the no-effect control and ±100 the full control effect; potency means the concentration at half of the fitted maximal effect; tags describe the fitted curve by direction and shape.

SMILES	Potency	activity change, negative = inhibition
O=C1CC(N2CCC(c3nc4ccccc4[nH]3)CC2)C(=O)N1c1cccc(F)c1 (stereo not given)	inconclusive [inhibitor, partial curve]	–
COc1cc2ncnc(NCc3ccc(C)cc3)c2cc1OC	–	inactive: -2.97%
Cc1cc(NC(=O)CCOc2ccc(F)cc2)no1	active: 0.708 µM	–
O=C1ON=C(c2ccccc2)/C1=C/c1ccco1	active: 20 µM	–
COc1ccc(C2CC(c3ccc(OC)cc3)n3nc(NS(C)(=O)=O)nc3N2)cc1 (stereo not given)	–	inactive: -0.704%
O=C(CSc1nnc(SCc2ccc(Cl)cc2)s1)N/N=C/c1ccc(Cl)cc1Cl	–	inactive: 3.06%
CCC1=Nc2cc(C(=O)NCc3ccco3)ccc2Sc2ccccc21	inconclusive [inhibitor, partial curve]	–
Cc1ccc(-c2cc(C(=O)O)c3cc(Br)ccc3n2)s1	inconclusive [inhibitor, full curve]	–
Cc1ccc(N2CC(C(=O)N/N=C/c3sccc3C)CC2=O)cc1 (stereo not given)	–	inactive: 5.98%
Cc1cccc(NNC(N)=S)c1C	inconclusive [inhibitor, partial curve]	–
CCN(CC)C(=O)/C(NC(=O)c1ccccc1)=C(/Sc1ncccn1)c1ccccc1	inconclusive [inhibitor, partial curve]	–
C(=N\NC1=NCCCCC1)/c1c[nH]c2ccccc12	–	inactive: 2.4%
COCCCn1c(=O)c2ccccc2n2c(=S)[nH]nc12	–	inactive: 6.7%
CCOC(=O)c1c(C)[nH]c(C)c1C(=O)COc1ncnc2ccccc12	inconclusive [inhibitor, full curve, poor fit]	–
Cn1nc([N+](=O)[O-])nc1Sc1nnc(-c2ccccc2)o1	inconclusive [inhibitor, single point]	–
CC(=O)NC12CC3CC(C1)CC(C(=O)OCC(=O)Nc1ncc(Cl)cc1Cl)(C3)C2	inconclusive [inhibitor, partial curve]	–
CCOC(=O)c1[nH]c(C)c(/C(O)=C2\C(=O)C(=O)N(CCCN3CCOCC3)C2c2cccs2)c1C (stereo not given)	inconclusive [inhibitor, partial curve]	–
C/C=C/C1=CC(=O)C[C@H](c2ccc(Cl)cc2)C1	inconclusive [inhibitor, partial curve]	–
Cc1sc2nc(COC(=O)C(NC(=O)c3ccc(Cl)cc3Cl)C(C)C)[nH]c(=O)c2c1C (stereo not given)	inconclusive [inhibitor, partial curve]	–
CCCOc1ccc(CC(=O)NCc2ccco2)cc1OC	inconclusive [inhibitor, partial curve]	–
Cc1[nH]c2ccccc2c1/C=N\NC(=O)CNc1ccc2c(c1)OCO2	inconclusive [inhibitor, partial curve]	–
Cc1ccnc(NC(=O)CCC(=O)N(CC(=O)NCc2ccc(F)cc2)c2cccc(F)c2)c1	–	inactive: -3.82%
Cc1ccc(CCNCc2c(C(=O)O)c(C)n(-c3ccccc3)c2C)cc1	inconclusive [inhibitor, full curve]	–
CCOC(=O)C1CCN(c2nc(N)c3c(N)nc(SCC(=O)O)cc3c2C#N)CC1	inconclusive [inhibitor, partial curve, poor fit]	–

SMILES	Potency	activity change, negative = inhibition
Cc1c(N=Nc2c(-c3ccc([N+](=O)[O-])cc3)[nH]n(C(N)=S)c2=O)cccc1[N+](=O)[O-]	–	inactive: -13.5%
C=CCn1c(SCC(=O)c2ccc(O)c(O)c2)nnc1-c1cccc(OC)c1	inconclusive [inhibitor, partial curve]	–
O=C(CCc1nnc(Cc2ccc3c(c2)OCO3)o1)N(CC1CCC1)CC1CCCO1 (stereo not given)	inconclusive [inhibitor, single point]	–
O=C(c1ccco1)N1N=C(c2cccs2)CC1c1ccc(F)cc1 (stereo not given)	inconclusive [inhibitor, single point]	–
CC(=O)Oc1c(-c2ccc(Br)o2)oc2ccccc2c1=O	inconclusive [inhibitor, partial curve]	–
O=[N+]([O-])c1cccc(S(=O)(=O)NCC2CC3CCC2C3)c1 (stereo not given)	–	inactive: -31.4%
Cc1ccc(CNC(=O)Nc2ccc(OC(F)(F)F)cc2)n1C	inconclusive [inhibitor, full curve]	–
CN(C)c1ccc(C2Nc3cccc4cccc(c34)N2)cc1	active: 31.6 µM	–
Cn1cc(C(=O)N2CCc3ccccc3C2)c(=O)c2cc(S(=O)(=O)N3CCCCC3)ccc21	–	inactive: -5.82%
CCc1[nH]nc2c1C(Cc1ccccc1)C(C#N)=C(N)O2 (stereo not given)	inconclusive [inhibitor, partial curve]	–
O=C1NC(=O)N(c2cccc(Cl)c2)C(=O)/C1=C\c1ccc(Sc2nc3ccccc3[nH]2)o1	active: 7.08 µM	–
N#CC(C#N)=NNc1ccc(-n2ccc(C(F)(F)F)n2)cc1	inconclusive [inhibitor, partial curve]	–
Cc1ccc(C(=O)O)cc1-c1ccc(C=C2C(=O)c3ccccc3C2=O)o1	active: 44.7 µM	–
Cc1ccc(NS(=O)(=O)c2cc(N)ccc2Cl)c(C)c1	inconclusive [inhibitor, partial curve]	–
COC(=O)c1ccc(CSc2nnc(Nc3ccccc3OC)s2)o1	inconclusive [inhibitor, partial curve, poor fit]	–
O=C(O)c1cccc(S(=O)(=O)N2CCCC2)c1	inconclusive [inhibitor, single point]	–
O=C(O)c1ccc(-n2c(-c3cc(-c4ccco4)[nH]n3)n[nH]c2=S)cc1	inconclusive [inhibitor, partial curve]	–
CCc1ccccc1NC(=O)c1ccc(-n2c(C)ccc2C)cc1	inconclusive [inhibitor, partial curve, poor fit]	–
CC(=O)N1C(c2ccccc2)CC(=O)OC1c1ccc2c(c1)OCO2 (stereo not given)	inconclusive [inhibitor, single point]	–
C=CCn1nc2ccccc2c1OC	inconclusive [inhibitor, partial curve]	–
COc1cc2c(cc1OC)CN(CC(=O)Nc1ccc(Cl)c(S(=O)(=O)N(C)C)c1)CC2	–	inactive: -14.5%
CCCCC(=O)NC(=S)Nc1ccc(NC(=O)C(C)C)c(OC)c1	inconclusive [inhibitor, partial curve, poor fit]	–
CCC(=O)OCCNc1cc(SCCC(=O)OC)c2nonc2c1[N+](=O)[O-]	active: 6.31 µM	–
OC1(C2(O)CC(c3ccccc3)ON2)CCCCC1 (stereo not given)	inconclusive [inhibitor, single point]	–

SMILES	Potency	activity change, negative = inhibition
COc1ccc(CCNC(=O)C2CC(c3c(Cl)cccc3Cl)=NO2)cc1 (stereo not given)	inconclusive [inhibitor, single point]	–
O=C(CSCc1nc2ccccc2[nH]1)N1CCN(c2ccc(F)cc2)CC1	inconclusive [inhibitor, partial curve]	–
O=C1/C(=C/c2cccnc2)CCC/C1=C\c1cccnc1	active: 39.8 µM	–
O=C(Cc1ccccc1)NC(NC(=S)Nc1cc(Cl)ccc1Cl)C(Cl)(Cl)Cl (stereo not given)	inconclusive [inhibitor, single point]	–
CSc1ccc(S(=O)(=O)N2CCC(C(=O)NCc3ccccn3)CC2)cc1	–	inactive: 0.297%
COc1ccc(NS(=O)(=O)c2ccc(C)c(C(=O)N3CCC3)c2)cc1	inconclusive [inhibitor, single point]	–
CCCc1nc2ccccc2c(C(=O)OCC(=O)NCc2ccco2)c1CC	inconclusive [inhibitor, partial curve]	–
O=C(CN1CCN(Cc2ccccc2)CC1)c1ccccc1	inconclusive [inhibitor, partial curve]	–
CCC(C)NC(=O)Cn1c(=O)n(-c2ccc(Cl)c(Cl)c2)c(=O)c2c(C)c(C(=O)N(CC)CC)sc21 (stereo not given)	–	inactive: 1.27%
COC(=O)C1[C@H]2SC(C)(C)C(C(=O)OC)N2C(=O)N1Cc1nc2ccccc2s1 (stereo not given in full)	inconclusive [inhibitor, full curve]	–
CCCOc1ccc(C2/C(=C(/O)c3ccc(F)cc3)C(=O)C(=O)N2CCCN(C)C)cc1 (stereo not given)	inconclusive [inhibitor, partial curve]	–
C=CC#CC1(O)CC(C)[N+](C)(C)CC1C (stereo not given)	active: 12.6 µM	–
Cc1cccc(OCC(=O)OCc2cc(=O)n3nc(-c4cccs4)sc3n2)c1	–	inactive: -0.609%
CCOC(=O)c1cc(-c2ccccc2)n(-c2cccc(C(=O)Nc3cccc(C)c3)c2)c1C	–	inactive: 2.82%
COC(=O)C1=C(C)NC(C)=C(C(=O)OC)C1c1cc2cc(C)ccc2[nH]c1=O	inconclusive [inhibitor, partial curve]	–
C/[N+]([O-])=C\CC(=O)c1ccc(-c2ccccc2)cc1	inconclusive [inhibitor, partial curve, poor fit]	–
NC(=O)C1CCN(c2oc(/C=C/c3ccccc3)nc2S(=O)(=O)c2ccccc2)CC1	inconclusive [inhibitor, full curve]	–
Nc1ccccc1O	inconclusive [inhibitor, partial curve]	–
CN(CC(=O)Nc1ccccc1Cl)C1CCS(=O)(=O)C1 (stereo not given)	–	inactive: 3.95%
COc1cc(OC)cc(C(=O)NNC(=O)CCC(=O)c2cccs2)c1	inconclusive [inhibitor, partial curve]	–
C[n+]1cccc2cccc([O-])c21	active: 50.1 µM	–
COc1ccc(CCNC(=O)c2ccc(-n3c(C)cc4c3CCCC4)cc2)cc1OC	inconclusive [inhibitor, partial curve]	–
